# Results as given in the supplement of paper PMC8728848.
# Some of the results follow.
# B1: GNA (Galanthus nivalis), P30617 (protein)
# chain: MAKASLLILAAIFLGVITPSCLSDNILYSGETLSTGEFLNYGSFVFIMQEDCNLVLYDVDKPIWATNTGGLSRSCFLSMQTDGNLVVYNPSNKPIWASNTGGQNGNYVCILQKDRNVVIYGTDRWATGTHTGLVGIPASPPSEKYPTAGKIKLVTAK
# How the values were obtained:
# Assay in all cases: glycan array binding signal (z-score within array); higher = stronger binding
# Conditions in all cases: glycan notation: IUPAC condensed, linker removed
# [1] = target: Neu5Ac(a2-3)Gal(b1-4)GlcNAc(b1-2)[Neu5Ac(a2-3)Gal(b1-4)GlcNAc(b1-6)]Man(a1-6)[Neu5Ac(a2-3)Gal(b1-4)GlcNAc(b1-2)Man(a1-3)]Man(b1-4)GlcNAc(b1-4)GlcNAc
# In short: (§1)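 Glycan array data came from 3228 arrays in the Consortium for Functional Glycomics database, and only arrays with an available protein sequence were kept. Glycan names were put into IUPAC-condensed notation, and columns mapping to the same glycan were averaged. The binding signal is a within-array Z-score, averaged across arrays of one protein sequence run at different concentrations or buffers and across linkers. A negative Z-score can be read as non-binding.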
# [2] = target: Neu5Ac(a2-3)Gal(b1-4)GlcNAc(b1-2)[Neu5Ac(a2-3)Gal(b1-4)GlcNAc(b1-6)]Man(a1-6)[Neu5Ac(a2-3)Gal(b1-4)GlcNAc(b1-2)Man(a1-3)][GlcNAc(b1-4)]Man(b1-4)GlcNAc(b1-4)GlcNAc
# In short: as §1
# [3] = target: Neu5Ac(a2-3)Gal(b1-4)GlcNAc(b1-3)Gal
# In short: as §1
# [4] = target: Neu5Ac(a2-3)Gal(b1-4)GlcNAc(b1-3)Gal(b1-3)GlcNAc
# In short: as §1
# [5] = target: Neu5Ac(a2-3)Gal(b1-4)GlcNAc(b1-3)Gal(b1-4)GlcNAc
# In short: as §1
# [6] = target: Neu5Ac(a2-3)Gal(b1-4)GlcNAc(b1-3)Gal(b1-4)GlcNAc(b1-2)Man(a1-3)[Neu5Ac(a2-3)Gal(b1-4)GlcNAc(b1-3)Gal(b1-4)GlcNAc(b1-2)Man(a1-6)]Man(b1-4)GlcNAc(b1-4)GlcNAc
# In short: as §1
# [7] = target: Neu5Ac(a2-3)Gal(b1-4)GlcNAc(b1-3)Gal(b1-4)GlcNAc(b1-3)Gal(b1-4)GlcNAc
# In short: as §1
# [8] = target: Neu5Ac(a2-3)Gal(b1-4)GlcNAc(b1-3)Gal(b1-4)GlcNAc(b1-3)Gal(b1-4)GlcNAc(b1-2)Man(a1-3)[Neu5Ac(a2-3)Gal(b1-4)GlcNAc(b1-3)Gal(b1-4)GlcNAc(b1-3)Gal(b1-4)GlcNAc(b1-2)Man(a1-6)]GalNAc
# In short: as §1
# [9] = target: Neu5Ac(a2-3)Gal(b1-4)GlcNAc(b1-3)Gal(b1-4)GlcNAc(b1-3)GalNAc
# In short: as §1
# [10] = target: Neu5Ac(a2-3)Gal(b1-4)GlcNAc(b1-3)Gal(b1-4)GlcNAc(b1-3)[Neu5Ac(a2-3)Gal(b1-4)GlcNAc(b1-3)Gal(b1-4)GlcNAc(b1-6)]GalNAc
# In short: as §1
# [11] = target: Neu5Ac(a2-3)Gal(b1-4)GlcNAc(b1-3)Gal(b1-4)GlcNAc(b1-6)[Gal(b1-3)]GalNAc
# In short: as §1
# [12] = target: Neu5Ac(a2-3)Gal(b1-4)GlcNAc(b1-3)Gal(b1-4)[Fuc(a1-3)]GlcNAc
# In short: as §1
# [13] = target: Neu5Ac(a2-3)Gal(b1-4)GlcNAc(b1-3)GalNAc
# In short: as §1
# [14] = target: Neu5Ac(a2-3)Gal(b1-4)GlcNAc(b1-3)[Neu5Ac(a2-3)Gal(b1-4)GlcNAc(b1-6)]GalNAc
# In short: as §1
# [15] = target: Neu5Ac(a2-3)Gal(b1-4)GlcNAc(b1-6)GalNAc
# In short: as §1
# [16] = target: Neu5Ac(a2-3)Gal(b1-4)GlcNAc(b1-6)[Gal(b1-3)]GalNAc
# In short: as §1
# [17] = target: Neu5Ac(a2-3)Gal(b1-4)GlcNAc(b1-6)[Neu5Ac(a2-3)Gal(b1-3)]GalNAc
# In short: as §1
# [18] = target: Neu5Ac(a2-3)Gal(b1-4)GlcNAc6S
# In short: as §1
# [19] = target: Neu5Ac(a2-3)Gal(b1-4)[Fuc(a1-3)]GlcNAc
# In short: as §1
# [20] = target: Neu5Ac(a2-3)Gal(b1-4)[Fuc(a1-3)]GlcNAc(b1-2)Man
# In short: as §1
# [21] = target: Neu5Ac(a2-3)Gal(b1-4)[Fuc(a1-3)]GlcNAc(b1-3)Gal
# In short: as §1
# [22] = target: Neu5Ac(a2-3)Gal(b1-4)[Fuc(a1-3)]GlcNAc(b1-3)Gal(b1-4)GlcNAc
# In short: as §1
# [23] = target: Neu5Ac(a2-3)Gal(b1-4)[Fuc(a1-3)]GlcNAc(b1-3)Gal(b1-4)[Fuc(a1-3)]GlcNAc(b1-3)Gal(b1-4)[Fuc(a1-3)]GlcNAc
# In short: as §1
# [24] = target: Neu5Ac(a2-3)Gal(b1-4)[Fuc(a1-3)]GlcNAc(b1-3)GalNAc
# In short: as §1
# [25] = target: Neu5Ac(a2-3)Gal(b1-4)[Fuc(a1-3)]GlcNAc(b1-6)[Gal(b1-3)]GalNAc
# In short: as §1
# [26] = target: Neu5Ac(a2-3)Gal(b1-4)[Fuc(a1-3)]GlcNAc(b1-6)[Neu5Ac(a2-3)Gal(b1-3)]GalNAc
# In short: as §1
# [27] = target: Neu5Ac(a2-3)Gal(b1-4)[Fuc(a1-3)]GlcNAc6S
# In short: as §1
# [28] = target: Neu5Ac(a2-3)Gal6S(b1-4)GlcNAc
# In short: as §1
# [29] = target: Neu5Ac(a2-3)Gal6S(b1-4)[Fuc(a1-3)]GlcNAc
# In short: as §1
# [30] = target: Neu5Ac(a2-3)GalNAc
# In short: as §1
# [31] = target: Neu5Ac(a2-3)GalNAc(b1-4)GlcNAc
# In short: as §1
# [32] = target: Neu5Ac(a2-3)[GalNAc(b1-4)]Gal(b1-4)Glc
# In short: as §1
# [33] = target: Neu5Ac(a2-3)[GalNAc(b1-4)]Gal(b1-4)GlcNAc
# In short: as §1
# [34] = target: Neu5Ac(a2-3)[GalNAc(b1-4)]Gal(b1-4)GlcNAc(b1-3)GalNAc
# In short: as §1
# [35] = target: Neu5Ac(a2-3)[Neu5Ac(a2-6)]GalNAc
# In short: as §1
# [36] = target: Neu5Ac(a2-6)Gal
# In short: as §1
# [37] = target: Neu5Ac(a2-6)Gal(b1-3)GlcNAc(b1-3)[Gal(b1-4)GlcNAc(b1-6)]Gal(b1-4)Glc
# In short: as §1
# [38] = target: Neu5Ac(a2-6)Gal(b1-4)Glc
# In short: as §1
# [39] = target: Neu5Ac(a2-6)Gal(b1-4)GlcNAc
# In short: as §1
# [40] = target: Neu5Ac(a2-6)Gal(b1-4)GlcNAc(b1-2)Man
# In short: as §1
# [41] = target: Neu5Ac(a2-6)Gal(b1-4)GlcNAc(b1-2)Man(a1-3)Man(b1-4)GlcNAc(b1-4)GlcNAc
# In short: as §1
# [42] = target: Neu5Ac(a2-6)Gal(b1-4)GlcNAc(b1-2)Man(a1-3)[Gal(b1-4)GlcNAc(b1-2)Man(a1-6)]Man(b1-4)GlcNAc(b1-4)GlcNAc
# In short: as §1
# [43] = target: Neu5Ac(a2-6)Gal(b1-4)GlcNAc(b1-2)Man(a1-3)[GlcNAc(b1-2)Man(a1-6)]Man(b1-4)GlcNAc(b1-4)GlcNAc
# In short: as §1
# [44] = target: Neu5Ac(a2-6)Gal(b1-4)GlcNAc(b1-2)Man(a1-3)[GlcNAc(b1-2)Man(b1-4)GlcNAc(b1-2)Man(a1-6)]Man(b1-4)GlcNAc(b1-4)GlcNAc
# In short: as §1
# [45] = target: Neu5Ac(a2-6)Gal(b1-4)GlcNAc(b1-2)Man(a1-3)[GlcNAc(b1-4)][Neu5Ac(a2-6)Gal(b1-4)GlcNAc(b1-2)Man(a1-6)]Man(b1-4)GlcNAc(b1-4)GlcNAc
# In short: as §1
binder,measurement,setting,value
B1,glycan array binding signal (z-score),[1],-0.108
same,glycan array binding signal (z-score),[2],-0.169
same,glycan array binding signal (z-score),[3],-0.164
same,glycan array binding signal (z-score),[4],-0.19
same,glycan array binding signal (z-score),[5],-0.204
same,glycan array binding signal (z-score),[6],0.02
same,glycan array binding signal (z-score),[7],-0.093
same,glycan array binding signal (z-score),[8],0.162
same,glycan array binding signal (z-score),[9],-0.172
same,glycan array binding signal (z-score),[10],-0.132
same,glycan array binding signal (z-score),[11],-0.093
same,glycan array binding signal (z-score),[12],-0.082
same,glycan array binding signal (z-score),[13],-0.218
same,glycan array binding signal (z-score),[14],-0.171
same,glycan array binding signal (z-score),[15],-0.171
same,glycan array binding signal (z-score),[16],-0.219
same,glycan array binding signal (z-score),[17],-0.152
same,glycan array binding signal (z-score),[18],-0.064
same,glycan array binding signal (z-score),[19],-0.171
same,glycan array binding signal (z-score),[20],-0.166
same,glycan array binding signal (z-score),[21],-0.143
same,glycan array binding signal (z-score),[22],-0.183
same,glycan array binding signal (z-score),[23],-0.235
same,glycan array binding signal (z-score),[24],-0.151
same,glycan array binding signal (z-score),[25],-0.103
same,glycan array binding signal (z-score),[26],-0.181
same,glycan array binding signal (z-score),[27],-0.124
same,glycan array binding signal (z-score),[28],-0.126
same,glycan array binding signal (z-score),[29],-0.07
same,glycan array binding signal (z-score),[30],-0.207
same,glycan array binding signal (z-score),[31],-0.161
same,glycan array binding signal (z-score),[32],-0.104
same,glycan array binding signal (z-score),[33],-0.088
same,glycan array binding signal (z-score),[34],-0.073
same,glycan array binding signal (z-score),[35],-0.164
same,glycan array binding signal (z-score),[36],-0.126
same,glycan array binding signal (z-score),[37],-0.168
same,glycan array binding signal (z-score),[38],-0.124
same,glycan array binding signal (z-score),[39],-0.159
same,glycan array binding signal (z-score),[40],-0.164
same,glycan array binding signal (z-score),[41],-0.17
same,glycan array binding signal (z-score),[42],-0.215
same,glycan array binding signal (z-score),[43],-0.172
same,glycan array binding signal (z-score),[44],-0.372
same,glycan array binding signal (z-score),[45],-0.182
